In all, about 220,000 compounds went through this assay and about 16,000 (7.3%) were called active. The inconclusive results got no clear call from the source; some entries with a clear call stand among them for comparison. Calls come from the whole dose curve; as a rule, active = well fitted inhibition curve with a large enough effect (not every such curve was filed as active); inconclusive = small, poorly fitted or top-dose-only effect, or another doubt; inactive = no such curve, though single readings can be large or run the other way. A potency beside an inconclusive call is a rough fit, not a confirmed value.
Each compound was assayed against Aldehyde dehydrogenase 1A1 (Homo sapiens) (UniProt P00352) (assay: qHTS Assay for Inhibitors of Aldehyde Dehydrogenase 1 (ALDH1A1)). Settings: Purified ALDH1A1, NADH fluorescence, propionaldehyde substrate; series mostly up to 75.3 µM; activity, negative = inhibition: at the top concentration.
Potency is the fitted concentration of half-maximal effect; tags give direction and shape of the fitted curve.
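Throughout, for activity, negative = inhibition: plate controls were no enzyme wells and a reference inhibitor.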

Chain of UniProt P00352 (P00352 whole entry, looked up): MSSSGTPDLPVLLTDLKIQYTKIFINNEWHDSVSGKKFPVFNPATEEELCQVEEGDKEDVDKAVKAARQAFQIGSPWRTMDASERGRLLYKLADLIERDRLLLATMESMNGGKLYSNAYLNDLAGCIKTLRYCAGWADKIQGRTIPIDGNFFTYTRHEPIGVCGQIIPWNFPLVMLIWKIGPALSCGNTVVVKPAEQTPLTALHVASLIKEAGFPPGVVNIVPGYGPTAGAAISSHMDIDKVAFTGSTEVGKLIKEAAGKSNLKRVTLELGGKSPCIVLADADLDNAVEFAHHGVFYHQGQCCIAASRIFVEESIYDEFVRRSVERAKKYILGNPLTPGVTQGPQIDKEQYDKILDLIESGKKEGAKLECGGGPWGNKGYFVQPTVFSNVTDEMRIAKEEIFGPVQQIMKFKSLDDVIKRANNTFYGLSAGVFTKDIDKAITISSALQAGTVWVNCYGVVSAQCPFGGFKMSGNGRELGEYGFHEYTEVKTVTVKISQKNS

activity, negative = inhibition, inactive:
O=C1C2ON(c3ccccc3)C(c3ccccc3F)C2C(=O)N1c1ccccc1 (centres undefined) -8.67%
CCCn1nnc(NC(=O)C(c2ccccc2)c2ccccc2)n1 12.5%
C=C(C)C(=O)OC1(C(F)(F)F)Oc2cc(C)ccc2NC1=O (centres undefined) 1.69%
O=C(Cc1ccc(Cl)c(Cl)c1)Nc1cccc2ncccc12 -2.78%
CC(C)n1cc(/C=C2/SC(=O)N(CC(=O)N3CCCC3)C2=O)c2ccccc21 -5.43%
COc1ccc(O)c(C(=O)CC(=O)c2ccc(F)cc2)c1 1.44%
COc1c(C)cc(C(=O)C2CCCN(C(=O)c3cc(C)nc(C)n3)C2)cc1C (centres undefined) -4.54%
CCCC1CC(C)(/C(C)=N\NC(N)=S)OC1=O (centres undefined) -5.48%
CCCCN(C)S(=O)(=O)c1ccc(C(=O)Nc2nnc(CSC)o2)cc1 6.21%
O=C(NCCCN1CCOCC1)c1cc2ccccc2o1 3.66%
Cc1ccc(C)c(N2CCN(C(=O)CN3C(=S)NC(C)(C)CC3C)CC2)c1 (centres undefined) -4.96%
COc1ccc(Cl)cc1N(C(C)C(=O)NC1CCCC1)S(C)(=O)=O (centres undefined) -6.86%
Cc1ccccc1Cn1c(=O)n(CC2CCC(C(=O)NCCc3ccccc3)CC2)c(=O)c2ccccc21 (centres undefined) -0.928%
CCOC(=O)c1c(C)oc2cc(Br)c(O)c(Br)c12 4.71%
C=CCn1c(=N)n(CC(=O)c2ccc(Br)s2)c2ccccc21 4.51%
CNCc1ccccc1Sc1cccc(O)c1 12.1%
Cn1cc[nH]c1=S 12.8%
Cc1nn(C)cc1CNC(=O)Nc1cccc(Cl)c1 -1.58%

Potency, inconclusive:
CC1(C)C2CC=C(/C=N/NC(=O)C(N)=O)C1C2 (centres undefined) 22.4 µM [inhibitor, partial curve]
Cc1ccc(N)cc1-n1c(C)ccc1C 31.6 µM [inhibitor, single point]
COCCn1c(SCC(=O)Nc2cc(C)cc(C)c2)nnc1C(C)C 28.2 µM [inhibitor, single point]
COc1nccnc1NS(=O)(=O)c1ccc(NC(=S)NC(=O)c2cccc(F)c2)cc1 39.8 µM [inhibitor, single point]
CCc1nnc(NC(=O)c2ccc(-c3ccccc3Cl)o2)s1 35.5 µM [inhibitor, single point]
CCc1ccc(C(=O)NNC(=O)OC)cc1 25.1 µM [inhibitor, single point]
Cc1nn2c(-n3ccnc3C)c3c(nc2c1-c1ccccc1)CCC3 20 µM [inhibitor, single point]
Cc1ccc(C2=NN3C(=O)c4ccccc4C3C2)cc1 (centres undefined) 22.4 µM [inhibitor, partial curve]
O=C(Nc1cccc(S(=O)(=O)N2CCCCC2)c1)c1ccc([N+](=O)[O-])o1 39.8 µM [inhibitor, single point]
CC(=O)Cc1nsc(Nc2ccccc2)n1 39.8 µM [inhibitor, single point]
COc1ccc(N(CC(=O)Nc2ccc3c(c2)OCCO3)S(=O)(=O)c2c(C)noc2C)cc1 25.1 µM [inhibitor, partial curve, poor fit]
CCN(CC)S(=O)(=O)c1cc(C(=O)OCC(=O)Nc2ccc(-c3nc4ccc(C)cc4s3)cc2)ccc1F 25.1 µM [inhibitor, partial curve]
O=C(NNC1=NC2(CCCC2)Cc2ccccc21)c1ccncc1 12.6 µM [inhibitor, partial curve]
CCOC(=O)c1c(C)n(C)c2cc(Br)c(OC)cc12 35.5 µM [inhibitor, single point]
Cc1ccc(/C=c2/sc3nnc(-c4ccccc4Cl)n3c2=O)o1 44.7 µM [inhibitor, single point]
CN(C)c1ccc(C(=S)N2CCCCCC2)cc1 39.8 µM [inhibitor, single point]
Cc1ccccc1NS(=O)(=O)c1cc(C(=O)NCCC2=CCCCC2)ccc1C 25.1 µM [inhibitor, single point]
CNC(=S)NCCc1cc2c(OC)ccc(OC)c2[nH]c1=O 39.8 µM [inhibitor, single point]
Cn1c(=O)n(C)c2cc(/C=N/NC(=S)NCc3ccccc3)ccc21 17.8 µM [inhibitor, partial curve]
COc1cccc(-c2nc(-c3ccc(NC(=O)c4cccs4)cc3)no2)c1 37.7 µM [inhibitor, single point]
CCOC(=O)c1nnn(-c2nonc2N)c1-c1cccc2ccccc12 25.1 µM [inhibitor, partial curve]
CCOC(=O)c1c(C=O)c(C)n(Cc2ccc(C)cc2)c1C 3.55 µM [inhibitor, full curve]
C=CCOc1ccc2c(CC)cc(=O)oc2c1C 31.6 µM [inhibitor, partial curve]
O=C(NC12CC3CC(CC(C3)C1)C2)c1cc2nc(-c3ccco3)cc(C(F)(F)F)n2n1 35.5 µM [inhibitor, single point]
CCCCCCc1c(O)nc(SCC(=O)O)[nH]c1=O 25.1 µM [inhibitor, single point]
O=C(NCCN1CCCC1)c1ccc(CS(=O)(=O)c2c(Cl)cccc2Cl)o1 44.7 µM [inhibitor, single point]
COc1ccc(NC(C)=O)cc1NC(=O)CN1CCN(CC(=O)Nc2ccccc2Cl)CC1 39.8 µM [inhibitor, single point]
CCN(CC)C(=S)SCC(=O)c1c(C)[nH]c2ccccc12 17.8 µM [inhibitor, partial curve]
CC(=O)Oc1ccc(/C=C2/CCc3ccccc3C2=O)cc1 39.8 µM [inhibitor, single point]
CCOC(=O)c1sc(-c2ccc(OC)cc2)cc1NC(C)=O 22.4 µM [inhibitor, partial curve]
COc1cc2c(cc1OC)-c1nnc(-c3ccco3)n1C1(CCCC1)C2 28.2 µM [inhibitor, single point]
FC(F)Sc1ccc(NC(=S)NCC2CCCCC2)cc1 14.1 µM [inhibitor, partial curve]
COc1cc(-c2nc(CN(C)C(C)c3ccncn3)c(C)o2)ccc1F (centres undefined) 31.6 µM [inhibitor, single point]
Cc1ccccc1-n1nc(SCC(=O)O)sc1=S 11.2 µM [inhibitor, partial curve]
COC(=O)c1ccccc1NC(=O)CN(C1CCCCC1)S(C)(=O)=O 39.8 µM [inhibitor, single point]
COC(=O)c1ccc(CSc2nnc(C)s2)cc1 28.2 µM [inhibitor, single point]
Cn1cccc1C(=S)N1CCOCC1 39.8 µM [inhibitor, single point]
N#CCSc1nc(-c2ccccc2)c2cc(Cl)ccc2n1 37.7 µM [inhibitor, single point]
CCCCNC(=O)c1sc2nc(C)cc(COC)c2c1-n1cccc1 20 µM [inhibitor, partial curve]
C/C(Cn1cnc([N+](=O)[O-])n1)=N\NC(=O)c1ccc(O)cc1O 10 µM [inhibitor, partial curve]
COc1cccc(NC(=S)Nc2cc(C(=O)O)ccc2N2CC3CC(C2)c2cccc(=O)n2C3)c1 (centres undefined) 39.8 µM [inhibitor, single point]
Cc1nc2cnc(N(C)C)nc2n(Cc2ccc(F)cc2)c1=O 14.1 µM [inhibitor, partial curve]
NNC(=O)c1ccc(O)cc1O 35.5 µM [inhibitor, single point]
COc1ccc(-c2cc(-c3nnc(COC(=O)CC4CCCC4)o3)c3ccccc3n2)cc1OC 39.8 µM [inhibitor, single point]
Cc1cc(F)ccc1S(=O)(=O)Nc1ccccc1C(=O)Nc1ccccc1-c1nc2ccccc2[nH]1 35.5 µM [inhibitor, single point]
CCSc1cc(C)nc2ncnn12 39.8 µM [inhibitor, single point]
CCc1sc(C(=O)Nc2cc(Cl)ccc2N2CCCCC2)cc1C 6.31 µM [inhibitor, single point]
CCOC(=O)c1sc(NC(=O)CSc2nncn2C)nc1C 39.8 µM [inhibitor, single point]

Potency, active:
CCOC(=O)c1c(NC(=O)CC2SC(N)=NC2=O)sc2c1CCC(C)C2 (centres undefined) 15.8 µM
Cc1ccccc1N1C(=O)CC(Sc2nnc(-c3ccccc3)o2)C1=O (centres undefined) 7.94 µM
COCCNC(=S)NNc1ccc(Cl)c(C(=O)O)c1 8.91 µM
CN1/C(=C\C=N\NC(=O)c2ccccc2Br)C(C)(C)c2ccccc21 28.2 µM
C=CCN1C(=O)S/C(=C/c2ccsc2)C1=O 12.6 µM
CC1CC2=C(NC(=S)NC2c2cccc(F)c2)/C(=C/c2cccc(F)c2)C1 (centres undefined) 1.26 µM
CCCc1nc2c(sc3nc4c(cc32)COC(C)(C)C4)c(=O)n1CCN(CC)CC 17.8 µM
CC12CCC(c3n[nH]c(=S)nc31)C2(C)C (centres undefined) 20 µM
